According to publication PMC7819943, “Rice protein-binding microarrays: a tool to detect cis-acting elements near promoter regions in rice”:
Some of the results follow.

Molecular target: T1, OsWOX13 (Oryza sativa, UniProt Q5QMM3 1-267)
T1 sequence: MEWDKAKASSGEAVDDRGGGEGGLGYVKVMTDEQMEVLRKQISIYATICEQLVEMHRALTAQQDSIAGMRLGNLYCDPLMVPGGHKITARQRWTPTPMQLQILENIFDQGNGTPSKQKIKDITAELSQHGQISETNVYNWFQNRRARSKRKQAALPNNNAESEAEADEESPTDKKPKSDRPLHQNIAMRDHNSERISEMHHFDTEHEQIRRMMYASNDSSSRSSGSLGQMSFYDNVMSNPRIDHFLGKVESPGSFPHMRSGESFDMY
Experiment: protein-binding microarray (RPBM); PBS, 2% BSA, 51.3 ng/ul salmon testes DNA, 50 uM zinc acetate, 200 nM TF, 25 C, 1 h; high values mean tight binding
Details: protein: recombinant; tags: N-terminal polyhistidine and DsRed monomer fusion (pET32a); label: CyDye5-dUTP incorporated in the synthesized complementary strand; 3' TTTTT single-stranded linker to array surface; dsDNA, one strand shown
Method in brief: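 A custom Agilent array was converted to double-stranded form by primer extension with Cy5-dUTP and blocked with 2% BSA. Protein at 200 nM in PBS with 2% BSA, salmon testes DNA and 50 µM zinc acetate was applied for 1 h at 25 °C, followed by washing. The proteins were polyhistidine–DsRed N-terminal fusions of transcription factors, expressed in E. coli BL21-CodonPlus and Ni–NTA-purified. The binding signal is per-feature fluorescence intensity (arbitrary units) from an Axon 4000B scanner.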

Sequence | binding signal
CCGTGTAATTAGGCTAAGGCCACATTTAGCATAACTTTACCGGAGTCACCTAGTGCAG | 6160 fluorescence intensity (a.u.)
TTAGGAGACTAAATTTGCCTGATTATAAATAGCTAAGCGCCGGAGTCACCTAGTGCAG | 11600 fluorescence intensity (a.u.)
CCCATCCCAATCACATGGACCACGGCCCGCCACGTAAGCACGGAGTCACCTAGTGCAG | 7920 fluorescence intensity (a.u.)
GTCCAAAACATCAATTAATATGGAACCGGAGGGAGTAGTACGGAGTCACCTAGTGCAG | 9040 fluorescence intensity (a.u.)
TCTTTTCTTCCCTAATTGATCTCCTAGAGAGTTGAGAGTTCGGAGTCACCTAGTGCAG | 4660 fluorescence intensity (a.u.)
ATTTGATTAACAGGCTGAATTCGTTCGAGAGATTTGATAACGGAGTCACCTAGTGCAG | 26900 fluorescence intensity (a.u.)
TAGATGGTCAGATAGATTGAGCTAAGCACACACACACACTCGGAGTCACCTAGTGCAG | 6610 fluorescence intensity (a.u.)
CGCACGTAAATTTTAAATTTTGTATTGGATTTGGTCTTTTCGGAGTCACCTAGTGCAG | 14600 fluorescence intensity (a.u.)
AGATTAATTTTGTACACCCTCCGCATTTTAATGTATGACGCGGAGTCACCTAGTGCAG | 10900 fluorescence intensity (a.u.)
GCACACATGATCAATCAATTAATAGATTAGGTAGGTACGGCGGAGTCACCTAGTGCAG | 51100 fluorescence intensity (a.u.)
GCAATCTATTATTAATTATATATGTATATATATGATAATTCGGAGTCACCTAGTGCAG | 5800 fluorescence intensity (a.u.)
AATAAATTGGACCAGAAGCTAACATTGGATCTGAATTAAGCGGAGTCACCTAGTGCAG | 17400 fluorescence intensity (a.u.)
ATGATAAGTATAATTACTTATCCTTGGTCTGTGTGTCAAGCGGAGTCACCTAGTGCAG | 11500 fluorescence intensity (a.u.)
TTAATTGGATTGTTTTGATTCGTTGGAGAAGTTAGGAATACGGAGTCACCTAGTGCAG | 28600 fluorescence intensity (a.u.)
GGTTAATTATGCGAAAGAGAATCTTAATCCCAGGGGCTTTCGGAGTCACCTAGTGCAG | 17600 fluorescence intensity (a.u.)
TTATCATATATAATCATGAATTATAAACTAAAATAACTGCCGGAGTCACCTAGTGCAG | 4600 fluorescence intensity (a.u.)
ATTGTCAACATAATCAATCTAAACCGTTTAATAGATATATCGGAGTCACCTAGTGCAG | 6110 fluorescence intensity (a.u.)
GTTAATGGAGCCAATTGGTTCTCTGTATTTTGTTAGGCAACGGAGTCACCTAGTGCAG | 11200 fluorescence intensity (a.u.)
TTGATTAGCCAAGAGTCAAGTGCATTGCTTCCATTTGTAGCGGAGTCACCTAGTGCAG | 18800 fluorescence intensity (a.u.)
TTAATTAATTAACGTATGTACTCAGGAATTATATATAATACGGAGTCACCTAGTGCAG | 28600 fluorescence intensity (a.u.)
ACCACCGCCGCCGCCGCCTGATTGGTGGTAATCGGAGGTGCGGAGTCACCTAGTGCAG | 4860 fluorescence intensity (a.u.)
TAATCAATCATCACCACCATCTAATTTAACGACCACGGTCCGGAGTCACCTAGTGCAG | 36800 fluorescence intensity (a.u.)
ACCTTGATTATTCTTCTCCAGGAATCGCAGCAGAGTGCGGCGGAGTCACCTAGTGCAG | 30800 fluorescence intensity (a.u.)
CATCAATCATGATTGAAGATGATTCAAGGTTGAGAGGACCCGGAGTCACCTAGTGCAG | 53900 fluorescence intensity (a.u.)
TTGCCGTGATTGTGTGATCTTGAATTTGATCGCTAGGAGGCGGAGTCACCTAGTGCAG | 40100 fluorescence intensity (a.u.)
TGATCGATTGAAAGCAAATATCATCTTGAAAAGGATCGTTCGGAGTCACCTAGTGCAG | 3330 fluorescence intensity (a.u.)
CGGAGTAAATTGTTTACTATCAAATCTATCTGCTGCCTATCGGAGTCACCTAGTGCAG | 13000 fluorescence intensity (a.u.)

Sequence | binding signal
CATGTAATTACGTTTCGGCCCAAAACGGAAAGCAAAATTTCGGAGTCACCTAGTGCAG | 3640 fluorescence intensity (a.u.)
TTCGTGATAGATGGTGTCAGGCATTTCACTGAATGATCTACGGAGTCACCTAGTGCAG | 5580 fluorescence intensity (a.u.)
CTAAATTATAGCAGCGAACACACATCATGAGAAATACATCCGGAGTCACCTAGTGCAG | 5670 fluorescence intensity (a.u.)
TATTCTCTCAACTGATTTCATTGACGAAATCTGTTGAGAACGGAGTCACCTAGTGCAG | 3150 fluorescence intensity (a.u.)
ACCATCACAAACTTAATTAATTCCAATAGCATATACCAACCGGAGTCACCTAGTGCAG | 12100 fluorescence intensity (a.u.)
CTTGAGTAATAAAGAAATAATTTGCATTAGTTAGTCAGTCCGGAGTCACCTAGTGCAG | 5070 fluorescence intensity (a.u.)
AATGATTAGTAAATTTGAAGAGTAGTAGCTAGCTAGCTACCGGAGTCACCTAGTGCAG | 13100 fluorescence intensity (a.u.)
TTATAGTTTTATGACTAAATTGATGCTACACATGTAGTTTCGGAGTCACCTAGTGCAG | 3910 fluorescence intensity (a.u.)
TTTGCCGCTGAGTAATTAAATTGTCTACTTACAAATCCTCCGGAGTCACCTAGTGCAG | 3590 fluorescence intensity (a.u.)
TTATCAATCGCGCAATTTGCAAATACGTCATCCTTTCAAGCGGAGTCACCTAGTGCAG | 7910 fluorescence intensity (a.u.)
GCGTCTTAATGACAAGTGTTGATCTGACAGACCTGGAGCTCGGAGTCACCTAGTGCAG | 3680 fluorescence intensity (a.u.)
GTAATATTATCAAATTAGTAAAATTTGATAAGGTTTAATTCGGAGTCACCTAGTGCAG | 7690 fluorescence intensity (a.u.)
AGGGTAATAAATTGGAACCAAACCAAATAGGCCCATTATGCGGAGTCACCTAGTGCAG | 19400 fluorescence intensity (a.u.)
CCCCTGTCTCAAAATGTAATAATTTATAATTCTTTAGGTGCGGAGTCACCTAGTGCAG | 3660 fluorescence intensity (a.u.)
TCACTCTGATACAAATTTCAATTGATTTCAGGATATCAGACGGAGTCACCTAGTGCAG | 3430 fluorescence intensity (a.u.)
CAGCTAAATGCCGATTAATTAAGGAAGGGATAAATCCTATCGGAGTCACCTAGTGCAG | 7860 fluorescence intensity (a.u.)
ACGATTTATTTACCAGATTATTGCAATGGATTATCCTCTCCGGAGTCACCTAGTGCAG | 5390 fluorescence intensity (a.u.)
TCCCAGGCCTGTTGATCATGCTTATTGGGAATGCTTTTCACGGAGTCACCTAGTGCAG | 5330 fluorescence intensity (a.u.)
CTCCCGATCCCAATCAGCCTCAAGCCCCGCAGCACGGACACGGAGTCACCTAGTGCAG | 3410 fluorescence intensity (a.u.)
TCCAATATAAACTGGATTAGGGCTATTACCTGTCAAGGGGCGGAGTCACCTAGTGCAG | 6200 fluorescence intensity (a.u.)
CCTTTCAAATCAGATCCTAGTGATTGTCCCCTGGTTATAACGGAGTCACCTAGTGCAG | 9950 fluorescence intensity (a.u.)
TTTGACAGCGGCTGATGTTATATAGAGGAAAACGATGAGGCGGAGTCACCTAGTGCAG | 12500 fluorescence intensity (a.u.)
AAATATTCTGATTAGCTGCAGAGTGTTTCATTGGAAAATCCGGAGTCACCTAGTGCAG | 6160 fluorescence intensity (a.u.)
AACTCTTAATTAATATAAACTATAAATATTAAATAATGAACGGAGTCACCTAGTGCAG | 10800 fluorescence intensity (a.u.)
AATAAATTGGAGCTTCATCTTGGGTGACCAGACTATTTGGCGGAGTCACCTAGTGCAG | 22700 fluorescence intensity (a.u.)
TTGGGACTGATTCGTCAATTCCCCGGATAATCAGGTCGATCGGAGTCACCTAGTGCAG | 8000 fluorescence intensity (a.u.)
GTGACAAACTGACAACAGGTTGTTTAGTTTTCCATGATTACGGAGTCACCTAGTGCAG | 4530 fluorescence intensity (a.u.)
